Measured values: PubChem BioAssay AID1346428 (National Center for Advancing Translational Sciences (NCATS), 2018)
Screen size: about 48,000 compounds; about 1,200 (2.5%) were called active. Not shown: some 2% with an inconclusive outcome.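 The calls were made as follows: active = activation of at least 60% and not above a set upper limit (about 1 call in 100 departs from these limits); inconclusive = activation of 40% to 60%, or above that upper limit; inactive = activation under 40%.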 This is one part of the list.

Biological target: Probable G-protein coupled receptor 32 (Homo sapiens) (UniProt O75388)
UniProt O75388, sequence (O75388 whole entry, looked up): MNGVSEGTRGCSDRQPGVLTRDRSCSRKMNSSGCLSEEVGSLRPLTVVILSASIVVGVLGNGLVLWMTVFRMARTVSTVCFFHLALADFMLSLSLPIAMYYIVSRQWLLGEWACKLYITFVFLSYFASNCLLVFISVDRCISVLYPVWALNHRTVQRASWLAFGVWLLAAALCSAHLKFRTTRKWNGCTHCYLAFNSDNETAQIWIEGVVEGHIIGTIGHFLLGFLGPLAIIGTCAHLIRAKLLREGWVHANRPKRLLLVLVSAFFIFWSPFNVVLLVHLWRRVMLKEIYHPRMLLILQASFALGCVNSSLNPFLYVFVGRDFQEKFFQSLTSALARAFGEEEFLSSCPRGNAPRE
Test: qHTS for Agonists of Human Resolvin D1 Receptor DRV1; also: 0% is about no effect
Details: CHO-K1 GPR32 beta-arrestin PathHunter luminescence, 90 min; at 76.9 µM; hits give high values; zero percent set by DMSO-only wells
Summary of the method: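 Readings come from a cell-based beta-arrestin complementation format: CHO-K1 GPR32 stable cells (2,500/well) treated 90 min with compounds, then beta-Gal substrate added for 1 h before chemiluminescence imaging.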

activation, inactive:
Cc1ncc(CO)c2c1Oc1nc(-c3ccccc3Cl)nc(SCc3ccccc3F)c1C2 12.6%
COCCCNC(=O)Cn1cnc2sc(C)c(S(=O)(=O)N3CCC(C)CC3)c2c1=O -2.51%
Cc1ccc(C)c(NC(=O)n2ncc3cc(Cl)ccc32)c1 -3.69%
COC(=O)C(C)Sc1ccc2nnc(CCNS(=O)(=O)c3ccc(C)cc3)n2n1 (stereo unspecified) -7.47%
CCOc1ccc(C2CC(=O)Nc3nc(SCc4ccccc4C)[nH]c(=O)c32)cc1OC (stereo unspecified) -17.4%
CC(C)NC(=O)c1ccc(Cn2c(SCC(N)=O)nc3ccccc3c2=O)cc1 -1.08%
COc1ccc(C2CC(=O)N3CN(C4CCCCC4)CSC3=C2C#N)c(OC)c1 (stereo unspecified) 40%
O=C(NCc1cccnc1)c1nn(-c2ccc(Cl)cc2)nc1CO -6.87%
COc1cc(Cl)c(C)cc1Nc1nc2ccccc2c2nnc(C)n12 -1.06%
COc1ccc2nc(N(Cc3cccnc3)C(C)=O)sc2c1 -14.5%
CCc1ccc(-n2c(=O)c3cccnc3n2CC(=O)NCc2ccccc2)cc1 -29%
COC(=O)c1ccc(NC(=O)CSc2ccc(-c3sc(-c4ccccc4)nc3C)nn2)cc1 -12.6%
CCC(Oc1ccccc1-c1nnc(-c2ccccc2)o1)C(=O)Nc1ccc(C(C)=O)cc1 (stereo unspecified) -3.74%
COC(=O)c1cc2oc(C)cc2n1Cc1ccc(Br)cc1F -31.7%
COc1ccc(Nc2ncc3c(n2)CCN(Cc2ccccc2C)C3)c(OC)c1 -2.81%
O=C(NC1CC(=O)N(c2ccc(F)cc2)C1)c1ccco1 (stereo unspecified) -3.77%
COc1ccccc1C1CC(=O)NC(C)=C1C(=O)OC1CCCCCC1 (stereo unspecified) 4.8%
CCOC(=O)c1cc(-c2ccc(OC)cc2)n(CCC(=O)Nc2cccc(C)c2C)c1C -25.6%
CCCCc1nn2c(=O)cc(COC(=O)c3ccc4c(c3)OCO4)nc2s1 -5.23%
COC(=O)c1ccccc1NC(=O)Cn1nnc(-c2ccc(OC)cc2)n1 -0.866%
COc1cc(OC)cc(-n2c(=O)c3ccccc3n(Cc3ccccc3C#N)c2=O)c1 -2.36%
COc1ccccc1C(=O)NCC(c1ccc(N(C)C)cc1)N1CCc2ccccc21 (stereo unspecified) -34.5%
O=C(CCCn1c(=O)[nH]c2ccc(Br)cc2c1=O)N1CCN(c2cccc(Cl)c2)CC1 46.5%
CCOc1ccc(-c2cn3c(n2)sc2cc(C(=O)NCCCN4CCCCC4)ccc23)cc1 -12.5%
CC1=C(C(=O)Nc2ccccc2)C(C(C)C)n2nc(SCc3ccccc3C)nc2N1 (stereo unspecified) -9.76%
CCC(=O)Nc1cc(-c2cn3cccnc3n2)ccc1OC -4.9%
N=C(N)c1ccc(OCCCCCOc2ccc(C(=N)N)cc2)cc1 (tested in a mixture with another compound) -7.87%
CCc1ccc(NC(=O)Cn2nc(C(F)(F)F)c3c2CCCC3)cc1 6.69%
COc1cc(NC(=O)c2ccc(-c3nc(CSc4ccccc4)c(C)o3)cc2)cc(OC)c1 -16.3%
O=C(Cn1ncn2cccc2c1=O)NCc1cccc(Br)c1 -5.26%
COc1ccccc1Cc1nc2ccccc2nc1SCC(=O)Nc1c(C)cccc1C -3.84%
Cc1c(Cl)cccc1NC(=O)Cn1c(=O)cc(C)c2c(C)nn(-c3cccc(F)c3)c21 -11.1%
COc1ccc(NC(=O)c2cc(-c3ccc(F)cc3)no2)cc1OC 1.37%
CCCNC(=O)Cn1nc(-c2ccc(C)cc2)c2cnc3ccc(CC)cc3c21 1.56%
Cc1cc(NC(=O)c2ccco2)cc(-c2nc3ccccc3o2)c1O 27.3%
CN(C)CCN(Cc1ccccc1)S(=O)(=O)c1csc(C(N)=O)c1 -9.96%
CCn1c(C)c(C)c2cc(C(=O)N3CCN(c4ccccc4)CC3)ccc21 -33.3%
CCN(C(=O)CCS(=O)(=O)c1cc2c(cc1C)NC(=O)CO2)c1cccc(C)c1 13.9%
COCCCNC(=O)CCCn1c(=O)c2ccccc2n(CC(=O)Nc2ccc(C)cc2Cl)c1=O -5.26%
Cn1c(=O)c2c(nc(N3CCOCC3)n2Cc2ccccc2Cl)n(C)c1=O 9.15%
O=C(NCCc1ccc(Cl)cc1)c1nnc(Cc2ccc(Cl)cc2Cl)o1 0.637%
CC(C)Cn1c(-c2ccccc2Cl)nc2ccccc21 14.4%
CCOc1ccc(-c2c(C)nn3c(C)c(C(=O)NCCN(C)C)cnc23)cc1OCC -2.74%
O=C(CSc1nncn2c1cc1occc12)Nc1ccc(F)c(Cl)c1 -2.83%
COc1ccc(N(CC(=O)NCCc2ccc(C)cc2)S(=O)(=O)c2c(C)nn(C)c2C)cc1 -5.05%
CC(C)Cn1c(CN2CCN(c3cccc(Cl)c3)CC2)nc2c1c(=O)[nH]c(=O)n2C 2.35%
COc1cc(OC)cc(-c2nnc(SCC(=O)c3ccc([N+](=O)[O-])cc3)o2)c1 42.1%
O=C(NCCc1ccc(Cl)cc1)c1ccc2nc(CCc3ccccc3)oc2c1 -8.33%
Cc1nc(S(=O)(=O)N2CCN(c3cccc(Cl)c3)CC2)cn1C -0.439%
COc1cc(Nc2nn(-c3ccc(OC(F)(F)F)cc3)nc2C(C)=O)cc(OC)c1 -8.4%
COc1ccc(C)cc1NC(=O)c1nnn(CC(=O)Nc2c(C)cccc2C)c1N 1.64%
Cc1ccc(C)c(S(=O)(=O)c2nnn3c2nc(NC2CCCC2)c2sccc23)c1 -27.4%
Cc1ccc(S(=O)(=O)c2cn(Cc3ccccc3)c3cc(N4CCCC4)c(F)cc3c2=O)c(C)c1 -18.1%
CSc1nnc(NC(=O)c2cc(=O)c3cc(C)c(C)cc3o2)s1 -2.4%
CCCCN(CC)C(=O)c1ccc2c(c1)NC(=O)c1ccccc1S2 50%
CCc1cccc(NC(=O)c2cc3c(=O)oc4ccc(C)cc4c3s2)c1 -4.69%
COc1ccc(CNC(=O)C(CC(C)C)NS(=O)(=O)c2ccc3c(c2)oc(=O)n3C)cc1 (stereo unspecified) -0.0003%
COc1ccc(OC)c([C@@H]2Nc3ccc(C(=O)O)cc3[C@@H]3C=CC[C@@H]32)c1 -12.3%
Cc1cccc(C)c1NC(=O)C(=O)NCC(c1ccc2c(c1)OCO2)N1CCN(C)CC1 (stereo unspecified) 4.93%
CCOc1c(CNCCSc2nnnn2C)cccc1OC 7.61%
O=c1c(-c2ccccc2)c1-c1ccccc1 18.9%
CCc1cccc(NC(=O)C2CCCN2S(=O)(=O)c2ccc3nc(-c4ccccc4)[nH]c3c2)c1 (stereo unspecified) -3.73%
Cc1ccc(Cn2c(=O)n(Cc3ccc(C(=O)NC4CCN(Cc5ccccc5)CC4)cc3)c(=O)c3ccccc32)cc1 -14.1%
CC(=O)c1ccc(NC(=O)CCn2cccn2)cc1 -3.6%
O=C(c1ccc(Br)cc1)N(Cc1ccco1)c1ccccn1 -10.7%
CN1C(=O)Cc2cc(S(=O)(=O)NCc3ccccc3Cl)ccc21 -15%
Cc1ccc2oc(C(=O)N3CCC(c4nc5ccccc5s4)CC3)c(C)c2c1 -30.1%
COc1ccc(N(CC(=O)N2CCCCC2)S(=O)(=O)c2ccc(OC)c(OC)c2)cc1 -5.02%
CCc1ccc(NC(=O)Cn2c(=O)n(-c3cccc(OC)c3)c(=O)c3c(C)c(C(=O)N(C)C)sc32)cc1 2.81%
Cc1ccc(-n2c(C)nc3c(cnn3-c3ccccc3)c2=O)cc1 -2.49%
CCCc1ccc(OCc2ccc(C(=O)Nc3ccccc3C(=O)OC)o2)cc1 -7.63%
CCc1ccc(CNC(=O)c2cccc(-n3c(C)nc4cccnc43)c2)cc1 25.7%
COc1ccc(CCNC(=O)c2ccc3c(c2)nc2n3CCCCC2)cc1OC -13.9%
CCCn1cnc2cc(NC(=O)c3cc(OC)c(OC)c(OC)c3)ccc21 -16.7%
Cc1ccc(CNS(=O)(=O)c2c(C)nc3sc(C)cn3c2=O)cc1 -11.5%
Cc1ccc(Cl)cc1NC(=O)CN1C(=O)c2ccccc2Sc2ncccc21 -3.62%
Cc1cccc(N2CCN(Cc3nnc(-c4cccc(Br)c4)o3)CC2)c1C -2.75%
CCCOC(=O)c1cccc(NC(=O)CSc2nnc3cc(C)c4ccccc4n23)c1 -4.91%
CC(=O)c1ccc(NC(=O)c2nc(-c3ccccc3)n(-c3ccc(C)cc3)n2)cc1 -39.4%
O=C(NCc1cccc(Cl)c1)C1CCCN(c2nn3cc(-c4ccc(F)cc4)nc3s2)C1 (stereo unspecified) -16%
Clc1ccc2nc(-c3ccc(N4CCOCC4)cc3)c(Nc3ccccc3)n2c1 -31.8%
COc1ccccc1NC(=O)Cn1c(=O)oc2cc(S(=O)(=O)NCc3ccccc3)ccc21 14.8%
Cc1cccc(NC(=O)c2ccc3oc(=O)c(S(=O)(=O)c4ccc(F)cc4)cc3c2)c1C -1.91%
CCOc1ccc(CNc2cc(C)nc3nc(-c4cccc(C)c4)nn23)cc1OC -30.9%
CCc1ccccc1N(C)C(=O)c1nn(-c2ccc(OC)cc2)c(=O)c2c1c1ccccc1n2C -6.19%
CCOc1ccc(S(=O)(=O)c2cc3cccc(OCC)c3oc2=O)cc1 7.56%
